Measured values: PubChem BioAssay AID463173 (ICCB-Longwood Screening Facility, Harvard Medical School, 2010)
Hit rate of the full screen: of about 52,000 compounds, about 1,700 (3.3%) were called active. Rule as the data show it: active = survival mostly below about 52% (no sharp cut-off); inactive = mostly above about 56%. The list shows a part of the results.

Test system: Wild type
Experiment: growth inhibition of S. aureus wild type versus tarO mutant, primary screen, teichoic acid synthesis inhibitors, RN4220, OD600 (AID 463173)
Conditions: S. aureus RN4220 wild type/DeltatarO growth, OD600, 18 h, hits give low values, screened at 18.75 µg/mL (by protocol)

| Structure (SMILES) | survival |
| --- | --- |
| COc1ccc(Cl)cc1NC(=O)Cn1c(=O)n(Cc2cccs2)c(=O)c2cccnc21 | inactive: 68% |
| Cc1nc2cccnc2n1C1CCN(S(=O)(=O)N(C)C)CC1 | inactive: 65% |
| COc1ccc(CNC(=O)Cc2c(C)c3c(cc(C)c4c(C)coc43)oc2=O)cc1OC | inactive: 87% |
| Cc1ccc(NC2=NCC(=O)N2C2CCCC2)cc1C | inactive: 104% |
| Cc1ccc2nc(-c3cc4ccccc4oc3=O)[nH]c2c1 | inactive: 104% |
| COC(=O)c1ccccc1NC(=O)c1ccc(COc2cc(C)cc(C)c2)o1 | inactive: 59% |
| COc1ccc(CCCc2nnc(SCC(=O)Nc3cc(C)ccc3C)o2)cc1 | inactive: 68% |
| O=C(NCc1ccccn1)C1CCCCC1 | inactive: 99% |
| COc1ccc(Br)c2c1-c1nc(NC(=O)c3ccccc3F)sc1C2 | inactive: 95% |
| Cn1c(O)c(C=NCC2(C)CC(O)CC(C)(C)C2)c(=O)n(C)c1=S (stereo not drawn) | inactive: 114% |
| Cc1nc2ccc(S(=O)(=O)N(CC(=O)Nc3cccc(Cl)c3)Cc3ccccc3)cc2s1 | inactive: 82% |
| Cc1cccc(C(=O)NC(c2n[nH]c(=S)n2C)C(C)C)c1 (stereo not drawn) | inactive: 122% |
| Cc1nn(CC(=O)NCc2ccc(N(C)C)cc2)c(=O)c2c(C)n(-c3ccc(Cl)cc3)nc12 | inactive: 95% |
| CCOc1ccc(NC(=O)CCn2c(=O)c3cccn3c3cccnc32)cc1 | inactive: 90% |
| CCOc1ccc(Cn2nnc(C(=O)Nc3cccc(SC)c3)c2N)cc1 | inactive: 73% |
| C=CCn1c(CSc2nc3ccccc3s2)nnc1SCC(=O)NCCN1CCOCC1 | inactive: 96% |
| Cc1nn(-c2ccc(F)cc2)c(-n2cccc2)c1C(=O)N1CCN(c2ccccc2)CC1 | inactive: 68% |
| Cc1cc2nn(-c3ccccc3)nc2cc1NC(=O)COc1ccc(Cl)cc1 | inactive: 65% |
| CC1CCC(NC(=O)CCc2cn(Cc3ccccc3Cl)c3ccccc23)CC1 (stereo not drawn) | inactive: 84% |
| Cc1cc(NC(=O)c2cc(-c3cccc(Cl)c3)on2)nn1Cc1ccc(Cl)cc1 | inactive: 82% |

| Structure (SMILES) | survival |
| --- | --- |
| COC(=O)C1CSCN1 (stereo not drawn) | inactive: 100% |
| CCCN(CCC)C(=O)Cn1c(=O)n(-c2ccc(C)c(C)c2)c(=O)c2c3c(sc21)CCCCC3 | inactive: 80% |
| Cc1ccc(CN2C(=O)N(c3ccc(F)cc3)C(=O)C2CC(=O)Nc2ccc(Cl)cc2)cc1 (stereo not drawn) | inactive: 111% |
| Cc1ncc(CO)c2c1Oc1nc(-c3ccc(F)cc3)nc(SCC(=O)N3CCCCC3)c1C2 | inactive: 82% |
| Cc1ccc(C)c(Cn2c3ccccc3c3cnn(CC(=O)NC4CCC(C)CC4)c(=O)c32)c1 (stereo not drawn) | inactive: 80% |
| O=C(NCCc1ccccc1)C1CCN(c2ncnc3c2nc2n3CCCCC2)CC1 | active: -4% |
| COc1ccc(NC(=O)CSC2=Nc3ccccc3C3=NC(CCC(=O)NCc4cccs4)C(=O)N23)cc1 (stereo not drawn) | inactive: 78% |
| Cc1ccc(NC(=O)CSc2nnc(-c3cc4occc4n3C)n2-c2ccccc2C)c(Cl)c1 | inactive: 99% |
| COC(=O)CN1C(=O)CSc2ccc(S(=O)(=O)Nc3cccc(Br)c3)cc21 | inactive: 32% |
| CCOc1ccc(NC(=O)CSc2nc3c(oc4ccccc43)c(=O)n2-c2cc(C)cc(C)c2)cc1 | inactive: 84% |
| CC1=C(C(=O)NCc2cccc(Br)c2)C2(CCCCC2)OC1=O | inactive: 82% |
| CCCCOC(=O)/C(C#N)=C/c1ccc(-c2cccc(C(F)(F)F)c2)o1 | inactive: 53% |
| CCOc1ccc(-c2nonc2NC(=O)c2ccco2)cc1 | inactive: 92% |
| Cc1ccccc1CNC(=O)C1CCN(S(=O)(=O)Cc2ccccc2)CC1 | inactive: 83% |
| COc1cc(/C=C/c2nc(C#N)c(N3CCCCC3)o2)cc(OC)c1OC | inactive: 113% |
| CC1(C)CC(=O)C/C(=N\NC(=O)CCc2ccccc2)C1 | inactive: 122% |
| Cc1ccc(C2c3[nH]c4ccccc4c3CCN2C(=O)c2ccccc2Br)cc1 (stereo not drawn) | inactive: 68% |
| Cc1ccc(C(=O)Nc2c(-c3ccccc3)nc3ccccn23)cc1 | inactive: 62% |
| Cc1nnc(N2CCC(C(=O)Nc3ccc(F)cc3)CC2)c2nn(-c3ccc(Cl)cc3)c(C)c12 | inactive: 71% |
| CCOC(=O)c1c(NC(C)=O)sc2c(NC(C)=O)cccc12 | inactive: 100% |

| Structure (SMILES) | survival |
| --- | --- |
| CCC(C(=O)OCc1cc(=O)n2nc(C)sc2n1)c1ccccc1 (stereo not drawn) | inactive: 125% |
| Cc1cccc(-c2noc(CN(C3CCCCC3)S(=O)(=O)c3ccc(F)cc3)n2)c1 | inactive: 82% |
| O=S(=O)(c1ccccc1)N1CCC(n2cnc3ccccc32)CC1 | inactive: 128% |
| Cc1ccc(-c2nc(=O)[nH]c3ccccc23)cc1 | inactive: 108% |
| COc1ccc2c(c1)-c1nc(NC(=O)c3ccc(OC)c(Br)c3)sc1CC2 | inactive: 82% |
| C(=N\N(Cc1ccccc1)Cc1ccccc1)/c1ccco1 | inactive: 101% |
| COc1ccc(OC)c(NC(=O)c2c(NCc3sccc3C)sc3c2CCCCC3)c1 | inactive: 74% |
| CS(=O)(=O)N(CCC(=O)O)Cc1ccccc1 | inactive: 115% |
| COc1ccc(NC(=O)CSc2nc3ccccc3nc2N2CCC(C)CC2)cc1 | inactive: 45% |
| COc1ccc(CNC(=O)CN(c2ccc(C(C)C)cc2)S(=O)(=O)c2c(C)nn(C)c2C)cc1 | inactive: 81% |
| Cc1ccccc1NC(=O)Nc1nnc(N2CCCCCC2)s1 | inactive: 97% |
| COc1ccccc1NC(=O)CCn1nc(-c2ccccc2OC)c2c(C)cc(C)nc21 | inactive: 111% |
| Cc1ccccc1OCC(=O)OCc1cc(=O)n2nc(C3CC3)sc2n1 | inactive: 81% |
| CCC(=O)N1CCc2cc(Br)cc(S(=O)(=O)CCC(=O)N3CCN(c4ccc(F)cc4)CC3)c21 | inactive: 138% |
| Cc1cc(C)c(C)c(OCC(=O)Nc2ccc(S(=O)(=O)Nc3nc(C)cc(C)n3)cc2)c1 | inactive: 76% |
| CCc1ccc(NC(=O)CC2C(=O)N(c3cccc(C)c3)C(=O)N2CCC(C)C)cc1 (stereo not drawn) | inactive: 72% |
| CCOC(=O)C1CCCN(C(=O)C2CCN(S(=O)(=O)c3c(C)noc3/C=C/c3ccccc3F)CC2)C1 (stereo not drawn) | inactive: 80% |
| O=C(CSC1=Nc2ccccc2N=C(c2ccc(F)cc2)C1)Nc1cccc(C(F)(F)F)c1 | inactive: 67% |
